The supplement of paper PMC3334620
Over roughly 33,000 sequences, “E-score (-0.5 to 0.5)” has its median near -0.04; the highest 2% begin near 0.36. The list shows a part of the results.

Target: T1, Hmlalpha2 (UniProt P0CY09)
T1 sequence: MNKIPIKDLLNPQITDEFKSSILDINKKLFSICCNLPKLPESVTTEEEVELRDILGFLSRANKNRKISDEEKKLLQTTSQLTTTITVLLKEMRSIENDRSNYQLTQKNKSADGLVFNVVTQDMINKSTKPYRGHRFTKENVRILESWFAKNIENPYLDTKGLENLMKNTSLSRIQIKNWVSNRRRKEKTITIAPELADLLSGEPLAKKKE
Experiment: PBM E-score (8-mer binding enrichment) (E-score (-0.5 to 0.5)); higher = stronger / more preferred TF binding; most listed sequences are background and not binding sites
Details: protein concentration: 200 nM; construct: GST-full length
Summary of the method: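 Universal all-10-mer Agilent arrays, fresh or stripped once, were converted to double-stranded form by primer extension. GST-tagged yeast transcription factors from PURExpress in vitro transcription/translation, full-length or DNA-binding domain only, were applied at about 100-200 nM and detected with fluorescent anti-GST. After masliner normalisation, the Universal PBM Analysis Suite scored each ungapped eight-base word together with its reverse complement by E-score.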

Sequence	PBM E-score
GAGACAGC	-0.136
AGCTTACG	0.127
GCAGATAA	0.0504
AATTATGA	0.109
CCAAGTCG	-0.144
CGCCTAAG	-0.151
ATCGTGCG	0.14
CGAACTGA	-0.111
CGGAGACG	-0.0283
CGCCACTA	-0.201
GAACTCCA	-0.0211
TCCACAGA	-0.139
AGACACCA	-0.109
ACCCCGCA	-0.14
AGAGTACA	0.197
CCTGTTGA	0.218
AGTTGTAT	0.244
ATTACGGG	-0.0184
CTACGGAC	-0.231
GATACGGA	-0.037
ATTGGCAC	-0.0259
GAGCGTTA	0.139
GAATATGC	-0.183
GCAAGCCA	-0.0582
TAAGATCA	0.0725

Sequence	PBM E-score
AGATCGCT	-0.147
CTCGCTAA	0.0195
ATTCAAAT	0.103
AGGCAAAT	-0.0597
AAAAACAG	-0.0177
AACGGAAC	-0.0115
ATGCATGC	0.121
TCGACCCA	-0.18
GACTTGCA	0.161
AGCAATAA	-0.0473
AGGCGAGG	-0.294
ACAAACTG	0.0291
ATGTTATC	0.401
CGGGAAGA	0.0699
AGTGCTGG	-0.183
GCCAGACA	-0.163
GGTGTCAC	-0.0975
ATACCGGG	-0.0964
CTACTGAC	-0.189
AGAACTAT	0.119
ACCCGAGC	-0.0626
TGTATCAA	0.279
ATTCTCTG	-0.163
GAGCTATA	-0.0673
CGCCTCCG	-0.205

Sequence	PBM E-score
AGTTATCA	0.0937
CGTGGAGA	-0.24
GGCTTAAC	0.136
ACGATTCG	-0.00509
ATGAGCGG	-0.161
GAGGCAAC	-0.221
CGCTGCTA	-0.24
TCCACCGA	-0.169
AAGGGATG	-0.188
ACGTCCAA	0.0104
GTTGGTAA	0.328
GCTTATAC	0.0744
TCTGGAAA	-0.0188
AGAGAGTA	0.089
CCCAGGTA	-0.101
CAATGGGC	-0.0746
CCCCTCGA	-0.205
CGCGATAG	0.0929
GAGAACTC	-0.234
AAACGCAC	0.161
ATCGTACG	-0.00776
AACAGCCC	0.0123
AGTGCCTC	-0.112
AATAGCCA	0.012
AATTAATC	0.148

Sequence	PBM E-score
GTTGCAAA	0.229
CTCCGCGC	-0.2
CTGCATGC	0.135
AGGGTCTC	-0.106
CCGACTAA	-0.149
TCTCGTCA	-0.0582
ATCTATGC	0.0381
GATCTCAC	-0.0588
GACACTAA	-0.0834
AAGATCAA	0.0571
CAACGGCC	-0.165
ACTCACTG	0.0859
AAGTGTAA	0.156
AACAACAA	0.306
AAACGCGC	0.16
CGTGTGCA	0.0955
CAAGTGGG	-0.06
CACCCGTC	-0.165
ACAGGTAG	0.00661
AGCAAGGA	-0.171
AGCCATTG	0.0239
AAAGTCAT	0.0672
GAGCGGAA	-0.0844
AATGTGAC	-0.14
AGATCCAC	-0.137

Sequence	PBM E-score
AGGACTAA	-0.165
CACGAGGG	-0.0513
AGAATAGC	-0.15
TGGAGCAA	-0.0513
AGTCGTAC	-0.161
ATCCTCGG	-0.306
GCGTTGAC	0.196
ACGAGGGG	-0.0932
CCCAATAA	-0.0986
ATCAGACG	-0.0575
ACTGCGGG	-0.135
GCAGGTTA	-0.218
AAATGACT	0.0928
TACTGCTA	-0.135
AAACACAT	0.314
ATCTGCTC	-0.0241
AGGGCCCT	-0.249
CCTCAAAC	-0.0319
CCACCCCG	-0.115
ATTCTAAG	0.0189
AATGTCTC	-0.00015
AACAATGA	0.232
CCCTCCCC	-0.29
ACTCTTCT	0.0161
GAAGAGGA	-0.279

Sequence	PBM E-score
CTAGCTCC	-0.0376
AGGTCCGA	-0.138
CCCGCGCC	-0.242
AGTAGCCG	-0.148
ACTTCCAG	-0.217
AATTAGCG	-0.0517
AGAACGTA	0.193
TCATTGCA	0.0979
AGAGTAAT	0.195
TCTCAACA	0.295
GAACTCGC	-0.00079
AGGGACAG	-0.336
CGCCCAAC	-0.136
CAATGCGA	0.0708
ACCGCTGG	-0.228
CTGCGGTA	-0.0205
ACCATTTA	0.106
CCAATGCG	-0.181
GTTGAAGA	0.135
TTACCTAA	0.223
GAATATTA	0.127
GGGCGTAC	-0.0757
AAACCGCC	-0.0107
GCTCATCC	-0.167
CCCAGCTA	-0.156

Sequence	PBM E-score
CGCACGTA	0.224
ACGCCCCC	-0.141
GACCAAGA	-0.256
CAGACGTA	0.14
CAGGGATA	-0.00861
TTCACAAA	0.136
GAGATTGA	-0.0419
ACCTGGAA	0.21
ATGCCGCA	-0.0752
CATTCCCA	-0.0328
AGACGACA	-0.0381
ACCATAAG	-0.141
ATATCTGA	0.103
AGTGCGGG	-0.18
CATGCTCC	0.0297
CTTTTGAC	0.204
AGAACAGA	-0.0893
AGTACTAG	0.065
TGGAAAAA	-0.0202
CGACCAAG	-0.16
TATCCGCA	0.194
GAGAATCA	-0.217
